Over roughly 33,000 sequences, “E-score (-0.5 to 0.5)” has its median near -0.011; the highest 2% begin near 0.28. This is one part of the list.
Molecular target: T1, Gcr1 (UniProt P07261)
T1 sequence: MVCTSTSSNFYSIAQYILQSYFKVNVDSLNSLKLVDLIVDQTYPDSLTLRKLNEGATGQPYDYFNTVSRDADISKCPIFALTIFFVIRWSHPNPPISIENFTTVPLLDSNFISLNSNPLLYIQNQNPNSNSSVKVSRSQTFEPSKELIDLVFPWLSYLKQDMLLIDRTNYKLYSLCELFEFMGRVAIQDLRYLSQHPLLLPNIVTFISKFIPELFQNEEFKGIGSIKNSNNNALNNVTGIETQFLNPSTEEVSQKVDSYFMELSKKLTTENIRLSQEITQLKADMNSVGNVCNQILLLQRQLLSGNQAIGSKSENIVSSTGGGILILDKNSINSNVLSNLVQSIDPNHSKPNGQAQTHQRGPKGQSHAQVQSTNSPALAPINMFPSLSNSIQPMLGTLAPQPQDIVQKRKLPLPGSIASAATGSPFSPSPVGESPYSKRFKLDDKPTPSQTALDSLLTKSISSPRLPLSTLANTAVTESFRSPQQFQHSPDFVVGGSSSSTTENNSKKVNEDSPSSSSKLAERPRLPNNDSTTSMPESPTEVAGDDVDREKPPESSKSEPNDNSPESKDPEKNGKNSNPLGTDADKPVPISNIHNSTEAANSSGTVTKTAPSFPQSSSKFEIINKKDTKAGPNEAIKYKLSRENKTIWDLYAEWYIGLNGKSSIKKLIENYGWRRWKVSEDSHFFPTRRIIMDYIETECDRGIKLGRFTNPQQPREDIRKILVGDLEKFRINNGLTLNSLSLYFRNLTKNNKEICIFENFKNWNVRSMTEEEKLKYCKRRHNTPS
Assay: PBM E-score (8-mer binding enrichment) (E-score (-0.5 to 0.5)); higher = stronger / more preferred TF binding; most listed sequences are background and not binding sites
Settings: protein concentration: 100 nM; construct: GST-full length
Procedure, shortened: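 Each ungapped eight-base word and its reverse complement, pooled, received an E-score from the Universal PBM Analysis Suite. Underlying scans, normalised with masliner, recorded fluorescent anti-GST bound to GST-tagged yeast transcription factors. These were applied at about 100-200 nM to universal all-10-mer Agilent arrays double-stranded by primer extension.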

Sequence	PBM E-score
ACGGTCAG	-0.324
ACTCTATG	-0.241
TGAGGCAA	0.0484
CCCGTAAC	0.166
AGGAAACG	-0.12
GGTGAGAA	-0.128
CACTTGCA	0.0925
CAAGGCGA	-0.122
ACTCGATC	-0.211
ACTGTGAA	0.0711
ATGCTATC	0.00719
CTAAGTGA	-0.0333
CAGTTACG	0.0925
TCCAGAAA	0.304
CTCCCGCC	-0.0803
ACGTTCTC	-0.172
AGCAGAGG	-0.0912
ATCTGAGG	0.00628
CGACCCAA	0.0032
GAATTGTC	-0.0452
ACTCTTGC	-0.123
AGAGTAGG	-0.119
ATACCCGA	0.0208
GGGGAACA	-0.0897
CGCTTCAC	-0.0614

Sequence	PBM E-score
AGCAGTAA	-0.0937
GCATACGC	-0.109
AGGGTCCA	0.125
AGTCAAAT	-0.0263
ATGATAGG	-0.0167
AACCCTCG	-0.238
CCTCGCAA	-0.128
GCGCGCCA	0.0132
ACATCTAA	0.00203
TTATTCAA	0.0579
AGGGGCGA	-0.0394
GTGGTTTA	-0.0987
CAGAGCGA	-0.106
GAGTGAAC	-0.0688
TATCGCAA	0.0082
CAGAAGCC	0.306
CGCCGCGC	0.137
AGGGACGG	-0.2
CACTATAC	-0.0375
GGAGACAC	0.0498
AATGTGTA	-0.0742
CGAGACAA	-0.137
CCATTCAA	-0.125
AGCTAATG	0.0122
ATCGTAAT	0.0725

Sequence	PBM E-score
ATACCTGC	0.115
CGCTACAC	-0.00936
ACTTAACA	0.0911
AGCTCACG	-0.14
ACAAAGCA	0.0449
CAAGAACG	-0.141
ATGGTTGC	0.274
ATGACGTA	-0.0777
ATCAAATA	0.037
ATGTTTTC	0.00559
GATGTGCA	-0.128
AGGAACAG	-0.0502
CTACAGAC	-0.0198
ATTCTAGG	0.167
GCAGCGAA	-0.0362
CATTGGCG	-0.226
ATAGTGAC	-0.055
CCTTGTTC	0.0321
CACCCAGA	0.198
ATCCTAAT	0.28
ACCCAGCA	0.116
ATCATCTA	-0.0438
GCCGACGC	0.102
ACTCTCTA	-0.252
AATGTCAG	-0.127

Sequence	PBM E-score
CAAAGATC	0.0527
ACTCTCCT	-0.21
AGCCAGCG	-0.203
CGGAGTGA	-0.0268
CCTAGGCC	-0.263
CAAAGGGG	-0.03
AGATTCAG	0.117
AGTTTACC	-0.0175
ACAGCATA	0.0467
GACGACAC	-0.0951
AACAGCCG	-0.015
CAGATGAA	0.14
ACCGGCAA	-0.0101
CTTTATCA	-0.0363
GCAGCGCA	0.0604
ATACAAGG	0.0694
GCATCTCA	0.139
CAAACAAG	0.207
CACAACTC	0.0532
ATGCATCA	-0.0769
AAACGCCC	-0.168
ACAACACC	-0.0379
AATCGGGT	0.0963
CATTAAAG	-0.0176
CGCTAGAC	-0.14

Sequence	PBM E-score
CGCCGGCG	0.232
CTTAAAAC	0.152
CTGCGGGC	0.00331
CTGCGGCC	-0.118
GTTCGCAA	0.00147
ACTATAGT	0.168
AATATCAG	0.0824
AAAGTACC	-0.0184
TATAGAAA	-0.0715
AGACCGTC	-0.144
CCTCCGCG	0.0159
ACATAGGC	-0.0531
ATAGCCAC	-0.037
CCGATGTA	-0.0867
CTTCTACC	-0.00986
CAGTCGTA	-0.213
GTCTCGCA	-0.132
GAAGTACC	0.0406
GGCCCCCC	0.0498
GAAATAGA	-0.082
GATGAAAC	-0.0609
CGGGCGCA	0.0492
TAATTACA	0.107
AAAGTTTA	0.176
ATCGAAAA	-0.0428

Sequence	PBM E-score
CAGAAACG	0.104
GCGTCACC	-0.0167
AACCTTCC	0.0262
CTGAAATA	0.0471
CCATAAGA	0.224
CTCATGAG	-0.125
GAACTAGC	-0.0573
GCTTCAGA	-0.00295
ATCCAAAA	0.282
ATTAGCTG	0.107
AAACATGC	0.00059
AGTAACGC	-0.24
GGTTTACA	0.0125
AAGGCCTG	-0.155
AGCGGGGC	-0.0517
AGCGAATG	0.138
ACCATACG	-0.152
GGACGACA	-0.0723
CGCAGAAA	0.00636
GGTAGTGA	0.136
CAGTAAAG	-0.0638
AACGTTTC	-0.0951
AACACTGT	-0.0718
AATGAGAG	-0.0484
AACTTAAA	0.0926

Sequence	PBM E-score
ATACTACA	0.214
CACCAGCG	-0.0349
CCGCGGAC	-0.239
ATTGGCCC	-0.0572
GGGTAAAA	0.0145
CCGTAAAA	0.177
AGCAGCCT	0.369
AAATTTCG	0.138
ACACGGGG	-0.0128
AGGAAACC	0.116
AGTCAGTG	-0.0506
CTTGCCCA	-0.0141
GACGGAAA	0.00355
CTCCTCTA	0.124
CACCAACG	-0.0171
AAAGCTAC	-0.0941
CTCTTACC	-0.0288
GCATTCGA	-0.175
CCCCCGCG	-0.0255
CAGCAAAA	0.06
TCGTCTCA	-0.0595
CCCCGAAC	0.0657

Source: the supplement of paper PMC3334620
